# Results from PubChem BioAssay AID1347073 (National Center for Advancing Translational Sciences (NCATS), 2019).
# Out of some 45,000 compounds screened, about 200 (0.44%) were called active. Another 7% or so got no clear call; they are omitted. The call rests on the fitted dose curve; in most records, active means well fitted activation curve with a large enough effect; inconclusive means small, poorly fitted or top-dose-only effect; inactive means no such curve, though single readings can be large or run the other way. The list shows a part of the results.
# Assay: qHTS of TDP-43 Inhibitors: NCGC Sytravon Library Screen; further: 0% is about no effect; nearly all actives have a fitted effect of over 55% in size
# Conditions: yeast TDP-43 toxicity rescue, BacTiter-Glo growth, 24 h; series mostly up to 46.1 µM; growth rescue (activation): at the top concentration
# Procedure, shortened: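 TDP-43-expressing yeast, pregrown in raffinose, seeded at OD600 0.02 in galactose medium with compound for 24 hr at 30 deg C. Growth read by BacTiter-Glo luminescence, so rescue of toxicity appears as activation.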
row,SMILES,growth rescue (activation)
1,c1csc(C2=Nn3c(nnc3-c3ccncc3)SC2)c1,inactive: 12.6%
2,S=c1nc(-c2cc(Cl)ccc2Cl)[nH][nH]1,inactive: -9.91%
3,COc1ccc(N2CCN(C(=O)[C@@H](NC(=O)c3ccccc3Cl)C(C)C)CC2)cc1,inactive: 15.6%
4,Cc1ccc[n+](/C(=C\C(=C=[N-])C#N)C(=O)c2ccc(Cl)cc2)c1,inactive: 9.72%
5,O=C(Nc1ccc(NC(=O)c2cccnc2)cc1)c1ccccc1,inactive: -2%
6,CC(C)OP(=O)(c1ccc(N(C)C)cc1)C(Nc1ccccc1)c1cccnc1 (stereo not given),inactive: 13.7%
7,COCCc1ccc(OC2(C)CCN(Cc3cccc(OC)c3OC)C2)cc1 (stereo not given),inactive: 17%
8,CCN(CC)c1ccc(S(=O)(=O)N(CC)CC)cc1NC(=O)C1CCCC1,inactive: 5.61%
9,NC1=NC(=O)/C(=C/c2ccc(Cl)cc2Cl)S1,inactive: 2.86%
10,CCCNC(=O)c1cc(-c2ccc3c(c2)OCO3)on1,inactive: -13.4%
11,COC(=O)c1[nH]c(C)c(/C(O)=C2\C(=O)C(=O)N(CCN3CCOCC3)C2c2cccs2)c1C (stereo not given),inactive: 6.46%
12,Cc1ccc(S(=O)(=O)/N=C(/NNC(=O)c2cccc(Cl)c2)c2ccccc2)cc1,inactive: 13.9%
13,COc1ccc(CN2CC(=O)N(c3ccccc3OC)C2=S)cc1OC,inactive: -10.8%
14,Cc1cccc(C)c1OCC(O)CN(Cc1ccccc1O)C1CCCCC1 (stereo not given),inactive: 14.2%
15,COc1cc(NC(=O)c2cccc(COCC(F)(F)C(F)F)c2)cc(OC)c1OC,inactive: -20.1%
16,O=C(/C=C/c1cn(-c2ccccc2)nc1-c1cccnc1)NCCN1CCOCC1,inactive: 0.202%
17,Nc1nnc(CSCc2ccccc2Cl)s1,inactive: 9.67%
18,O=C(C1=C(O)C(=O)N(CCOCCO)C1c1ccccn1)c1cccs1 (stereo not given),inactive: -2.52%
19,CCNC(=S)NNc1nc(N2CCCCC2)nc(N2CCOCC2)n1,inactive: 14%
20,O=C(CSc1nnc(-c2ccc(F)cc2)n1-c1ccccc1)NCCN1C(=O)CSC1=O,inactive: 8.71%
21,Cc1c(NC(=O)COC(=O)c2c3c(nc4ccccc24)CCCC3)c(=O)n(-c2ccccc2)n1C,inactive: 1.94%
22,CCn1ncc(Br)c1C(=O)Nc1cccc(C(C)=O)c1,inactive: -11.2%

row,SMILES,growth rescue (activation)
1,CCOc1ccc(CCNc2nc3ccccc3n3cnnc23)cc1OCC,inactive: 13.9%
2,CCC(=O)N(CCc1ccccc1C)Cc1cc2cc3c(cc2[nH]c1=O)OCO3,inactive: -6.84%
3,Cc1ccc2c(c1)/C(=C/c1ccco1)C(=O)N2,inactive: 16.9%
4,Cc1cc(=O)[nH]c(SCC(=O)Nc2ccc(Br)cc2)n1,inactive: 0.754%
5,CCOc1cc(/C=N/N=C2/NC(=O)C(CC(=O)O)S2)ccc1OCc1ccccc1Cl (stereo not given),inactive: 12.6%
6,COc1cccc(CNC(=O)Cn2cccc2C(=O)c2ccccc2)c1,inactive: 20.2%
7,Cc1cccc(C)c1NC(=O)NC1(C(=O)NCC2CCCO2)CCCCC1 (stereo not given),inactive: -13.2%
8,CCOC(=O)C1Nc2ccc(C(=O)O)cc2C2C=CCC12 (stereo not given),inactive: -1.29%
9,COc1ccc(NC(=O)c2cc(C)nc3ccccc23)cc1S(=O)(=O)N1CCOCC1,inactive: -12.1%
10,CCc1ccc(-c2nc(SCC(=O)c3c(N)n(C)c(=O)n(C)c3=O)n[nH]2)cc1,inactive: -31.7%
11,CN(c1ccccc1)S(=O)(=O)c1cccc(NC(=O)Cc2c(F)cccc2Cl)c1,inactive: 9.22%
12,Cc1c(Cc2c(C)n(C)n(-c3ccccc3)c2=O)c(=O)n(-c2ccccc2)n1C,inactive: -0.0079%
13,CCOC(=O)/C(N=Nc1ccc(F)cc1)=C(/O)c1ccc([N+](=O)[O-])cc1,inactive: 5.49%
14,NC(=O)c1nsc(C(=O)N(CCCN2CCOCC2)C(C(=O)NC2CCCCC2)c2ccc(Cl)cc2)c1N (stereo not given),inactive: 2.34%
15,Cc1ccsc1-c1cc2nc(NCCCN(C)C)n(C)c(=O)c2s1,inactive: 8.8%
16,C[C@H](NS(=O)(=O)c1ccc(F)cc1)C(=O)OCC(=O)c1c(N)n(C)c(=O)n(C)c1=O,inactive: -2.21%
17,CCN(CC)c1nc(Oc2ccc(C(=O)NN)cc2)nc(Oc2ccc(C(=O)NN)cc2)n1,inactive: 0.166%
18,COc1ccc(C(=O)Nc2cc(NC(=O)c3ccco3)ccc2OC)cc1Cl,inactive: -4.57%
19,Cc1noc(C(=O)Nc2ccc(F)cc2F)c1Cl,inactive: -8.17%
20,COc1ccccc1OCc1ccc(C(=O)Nc2ccccc2F)cc1,inactive: 5.14%
21,CSCCC(NC(=O)COc1ccccc1)C(=O)O (stereo not given),inactive: -4.18%
22,Cc1c(NC(=O)C(=O)/C=C(\O)c2ccc(Br)cc2)c(=O)n(-c2ccccc2)n1C,inactive: -40.2%

row,SMILES,growth rescue (activation)
1,CC(=O)Nc1ccc(S(=O)(=O)N2CCC(c3nc4c(nnn4Cc4ccccc4Cl)c(=O)[nH]3)CC2)cc1,inactive: 9.6%
2,Cc1ccccc1NC(=O)CCCNC(=O)c1ccc(Cl)cc1,inactive: 8.49%
3,Cc1ccc(C)c(NS(=O)(=O)c2ccc(OCC(=O)NCc3cccnc3)cc2)c1,inactive: 6.89%
4,CCc1nc(Nc2ccccc2F)c2oc3ccccc3c2n1,inactive: -0.583%
5,O=C(Cn1nnc2ccccc21)N/N=C/c1ccco1,inactive: 5.9%
6,CCCNCc1cc(OC)c(OCC(=O)Nc2ccccc2)cc1Br,inactive: 10.6%
7,CCOc1ncccc1C(=O)OCC(=O)Nc1ccc(C(C)C)cc1,inactive: 12.3%
8,CCc1cc(Br)ccc1N1C(=O)C2CC=CCC2C1=O (stereo not given),inactive: 12.8%
9,COc1ccccc1N(CC(=O)NCCSc1ccc(Cl)cc1)S(C)(=O)=O,inactive: -0.269%
10,COc1cc(/C=C(\C#N)C(=O)NC2CCCCC2C)ccc1OS(=O)(=O)c1ccc(C)cc1 (stereo not given),inactive: -0.588%
11,Cc1cc(OCC(=O)Nc2ccc3oc(=O)ccc3c2)ccc1Cl,inactive: 9.98%
12,CC(=O)N1N=C(c2ccccc2)CC1c1cccs1 (stereo not given),inactive: 23.3%
13,O=C(O)C1C2C=CC(O2)C1C(=O)NC1CCCc2ccccc21 (stereo not given),inactive: 1.63%
14,O=C(O)CCC(=O)/C=C/c1ccccc1,inactive: 23.3%
15,COc1ccc(C(=O)NCCNc2nc3cc(C)c(C)cc3cc2C)cc1,inactive: -22.4%
16,NNC(=O)CCCNc1ncc(C(F)(F)F)cc1Cl,inactive: 2.77%
17,CSc1cccc(CN2CCN(CCC(C)C)C(CCO)C2)c1 (stereo not given),inactive: 11%
18,Cc1ccc(O)c(CO)n1,inactive: -2.27%
19,COc1cc(CN2CCCCCC2)cc(OC)c1,inactive: 5.2%
20,CCCN(C(=O)c1ccc2c(=O)n3c(nc2c1)CCCCC3)c1cccc(Cl)c1,inactive: -3.57%
21,O=C1CCCc2[nH]c(-c3ccccc3)nc21,inactive: 14.1%
22,COc1ccccc1C(=O)N1CCCC1(C#N)c1ccccc1 (stereo not given),inactive: -19.1%

row,SMILES,growth rescue (activation)
1,COc1ccc([N+](=O)[O-])cc1N(CC1CO1)S(=O)(=O)c1ccc(C)cc1 (stereo not given),inactive: 16.7%
2,COc1cccc(CN2CCC2(C)C(=O)NCc2cccc(C(F)(F)F)c2)c1OC (stereo not given),inactive: 1.22%
3,CC(=O)Nc1ccc(-c2ccnc3c2CC(C(=O)NCc2cccc(Cl)c2)O3)cc1 (stereo not given),inactive: 0.306%
4,COc1cccc(OCC(=O)NNC(=O)Cc2cccs2)c1,inactive: 20.9%
5,CCN(CC)c1ccc(/C=N/Nc2cccc(C)c2)c(O)c1,inactive: 11.5%
6,Cc1cccc(NC(=O)CN2C(=O)C(c3ccc(F)cc3)=NC23CCCCCC3)c1C,inactive: 3.52%
7,CCc1c(C)nc2c(OC)cccc2c1SCCC(=O)O,inactive: 11.8%
8,CCc1ccccc1NC(=S)N=Nc1c(O)n(C)c2ccc(S(=O)(=O)N3CCOCC3)cc12,inactive: 1.69%
9,Cc1cc(C)nc(NC(=O)c2c(C(=O)O)noc2C)n1,inactive: -1.63%
10,CCCSc1ccc2nc(-c3ccccc3)cn2c1,inactive: -24.2%
11,CC(=O)Oc1ccc2c(=O)oc(-c3ccccc3)nc2c1,inactive: -0.421%
12,CC(C)(C)c1ccc(OCCn2nc(C(=O)O)c3ccccc3c2=O)cc1,inactive: -8.9%
13,COc1ccc(N(C(=O)c2snc(C(N)=O)c2N)C(C(=O)NC2CCCC2)c2cc(OC)ccc2OC)c(OC)c1 (stereo not given),inactive: -0.0536%
14,Cc1ccc(NS(=O)(=O)c2ccc(C(=O)OCC(=O)Nc3cc(C)on3)cc2)cc1,inactive: 15.6%
15,CCCCOc1ccc(NC(=S)Nc2cc(C)nc(SCCCC)n2)cc1,inactive: 5.15%
16,Cc1cc(C)nc(NS(=O)(=O)c2ccc(NC(=O)C3CC3)cc2)n1,inactive: 2.91%
17,COc1ccc(C(=O)NC(=O)COC(=O)C2CC2C)cc1 (stereo not given),inactive: 27.4%
18,Cc1ccc(SCc2nnc(N)s2)cc1,inactive: 13.5%
19,O=C1CCC(C(=O)Nc2cccc(S(=O)(=O)N3CCOCC3)c2)N1 (stereo not given),inactive: 11.2%
20,CC(=O)c1cn(CC(=O)Nc2ccccc2C)c2ccccc12,inactive: 18.2%
21,O=C(NC1CCCC1)C(NS(=O)(=O)c1ccc(Br)s1)c1ccccc1 (stereo not given),inactive: 7.97%
22,COc1ccc(NC(=O)Cn2c(=O)oc3cc(S(=O)(=O)N4CCCC4)ccc32)cc1OC,inactive: 3.83%

row,SMILES,growth rescue (activation)
1,CCCCn1c(N)c(N(CCOC)C(=O)CCc2ccc(OC)cc2)c(=O)[nH]c1=O,inactive: -2.78%
2,COc1ccc(-c2[nH]ncc2CN(C)CCc2c(C)n[nH]c2C)c(F)c1,inactive: -11.5%
3,c1ccc(Oc2ccc(-c3ccnc4nc(N5CCOCC5)nn34)cc2)cc1,inactive: 28.2%
4,O=S(=O)(c1ccccc1)N1CCN(C(=S)Nc2ccc(F)cc2)CC1,inactive: 21.2%
5,O=C(O)c1nc(NCCc2ccccc2)ncc1Cl,inactive: -11.2%
6,C[C@@H](C(=O)Nc1nccs1)N1C(=O)C2CC=CCC2C1=O (stereo not given in full),inactive: 4.46%
7,CCN(CC(=O)NC1CCS(=O)(=O)C1)S(=O)(=O)c1ccc(C)cc1C (stereo not given),inactive: 0.496%
8,COc1ccc(/C(C)=N/N=C(N)N)c(O)c1,inactive: -14.9%
9,CC(=O)c1cc(F)ccc1OCC(=O)N1CCN(c2ccc(F)cc2)CC1,inactive: 12.4%
10,O=C(NC1C=CS(=O)(=O)C1)c1ccccc1 (stereo not given),inactive: -7.95%
11,Fc1ccccc1N1CCN(Cc2cnc(Cl)s2)CC1,inactive: 2.71%
12,Clc1ccccc1CNCc1ccncc1,inactive: 14.4%
13,COc1ccc(S(=O)(=O)NCCOc2ccccc2)cc1C,inactive: 21.2%
14,Cc1ccccc1NS(=O)(=O)c1ccc2c(c1)NC(=O)CO2,inactive: 5.14%
15,C/C(=N/O)c1ccc2c(c1)OCCOCCOc1cc(/C(C)=N/O)ccc1OCCOCCO2,inactive: 12%
16,Cc1ccc(C)c(NC(=O)CN(C)C(C)C(=O)N2CCCC2)c1 (stereo not given),inactive: -4.52%
17,COC(=O)c1cc(-c2ccc(OC)cc2F)nc2nc(SC)[nH]c(=O)c12,inactive: -4.83%
18,CCOc1ccc(NC(=O)CCNC(=O)c2ccco2)cc1,inactive: 3.28%
19,Cc1cc(C)cc(-c2nnc(SCC(=O)NCC3CCCO3)o2)c1 (stereo not given),inactive: -11.9%
20,CCOc1ccccc1CN1CCN(C/C=C/c2ccc(OC)cc2)CC1CCO (stereo not given),inactive: -3.15%
21,COc1ccccc1OCCC(=O)OCC(=O)Nc1ccc2c(c1)OCCO2,inactive: -1.37%
22,COc1ccc(OC)c(-n2c(-c3cc(-c4ccccc4)n[nH]3)n[nH]c2=S)c1,inactive: 1.27%
